From publication PMC12370622 come the findings set out here.

Results are given in words; binding and its absence hold for the method and conditions named. Binding seen in cells or lysates may run through a third protein. Some results given as binding are weak or reduced against the parent protein; the word gives no strength. Sequences can lack the tags named with a protein.

Assay in all cases: pull-down; lysates of co-transfected N2a cells in 1% Triton lysis buffer; HB-tagged DHX8 or its fragments captured on Streptavidin Sepharose beads, 2 h at 4°C, washed four times; SIDT2 detected by immunoblotting
In assay [1] the target is T1, human DHX8 with 3 x HA-biotin (HB) tag, full-length (WT) (human) (UniProt Q14562).
T1 sequence: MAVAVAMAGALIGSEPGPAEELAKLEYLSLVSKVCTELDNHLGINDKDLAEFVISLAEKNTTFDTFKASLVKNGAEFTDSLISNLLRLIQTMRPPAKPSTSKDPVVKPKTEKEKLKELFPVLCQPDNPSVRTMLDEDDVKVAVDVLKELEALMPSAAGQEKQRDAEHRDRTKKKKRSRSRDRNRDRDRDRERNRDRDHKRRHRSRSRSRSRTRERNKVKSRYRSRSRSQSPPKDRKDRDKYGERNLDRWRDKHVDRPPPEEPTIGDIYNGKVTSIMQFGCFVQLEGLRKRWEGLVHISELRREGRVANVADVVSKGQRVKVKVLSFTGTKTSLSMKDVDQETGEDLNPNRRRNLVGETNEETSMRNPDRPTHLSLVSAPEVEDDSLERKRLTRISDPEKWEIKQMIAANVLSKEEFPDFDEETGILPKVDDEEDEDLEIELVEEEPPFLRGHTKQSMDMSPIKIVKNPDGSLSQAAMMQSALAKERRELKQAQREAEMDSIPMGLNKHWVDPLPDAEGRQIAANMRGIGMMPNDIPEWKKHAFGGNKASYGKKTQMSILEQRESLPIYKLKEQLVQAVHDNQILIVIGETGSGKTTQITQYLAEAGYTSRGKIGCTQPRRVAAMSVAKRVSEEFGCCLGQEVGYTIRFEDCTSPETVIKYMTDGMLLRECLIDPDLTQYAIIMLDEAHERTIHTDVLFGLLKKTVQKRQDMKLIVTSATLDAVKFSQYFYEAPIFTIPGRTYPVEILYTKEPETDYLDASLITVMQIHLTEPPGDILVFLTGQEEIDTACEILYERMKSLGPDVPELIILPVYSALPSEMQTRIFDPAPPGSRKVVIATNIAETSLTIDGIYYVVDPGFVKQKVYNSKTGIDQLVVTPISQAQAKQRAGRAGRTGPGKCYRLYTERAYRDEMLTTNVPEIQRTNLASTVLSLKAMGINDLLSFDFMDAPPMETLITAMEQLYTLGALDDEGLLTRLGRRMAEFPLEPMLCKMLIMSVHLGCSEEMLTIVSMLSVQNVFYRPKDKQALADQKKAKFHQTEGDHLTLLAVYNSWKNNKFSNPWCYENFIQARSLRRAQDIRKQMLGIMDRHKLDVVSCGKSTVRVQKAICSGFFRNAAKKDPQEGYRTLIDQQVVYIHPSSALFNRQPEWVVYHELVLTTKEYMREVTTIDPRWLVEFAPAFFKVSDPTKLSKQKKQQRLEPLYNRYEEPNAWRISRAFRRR

In assay [2] the target is T2, DHX8 N-terminal fragment (residues 1-566) with HB tag (human) (UniProt Q14562).
T2 sequence: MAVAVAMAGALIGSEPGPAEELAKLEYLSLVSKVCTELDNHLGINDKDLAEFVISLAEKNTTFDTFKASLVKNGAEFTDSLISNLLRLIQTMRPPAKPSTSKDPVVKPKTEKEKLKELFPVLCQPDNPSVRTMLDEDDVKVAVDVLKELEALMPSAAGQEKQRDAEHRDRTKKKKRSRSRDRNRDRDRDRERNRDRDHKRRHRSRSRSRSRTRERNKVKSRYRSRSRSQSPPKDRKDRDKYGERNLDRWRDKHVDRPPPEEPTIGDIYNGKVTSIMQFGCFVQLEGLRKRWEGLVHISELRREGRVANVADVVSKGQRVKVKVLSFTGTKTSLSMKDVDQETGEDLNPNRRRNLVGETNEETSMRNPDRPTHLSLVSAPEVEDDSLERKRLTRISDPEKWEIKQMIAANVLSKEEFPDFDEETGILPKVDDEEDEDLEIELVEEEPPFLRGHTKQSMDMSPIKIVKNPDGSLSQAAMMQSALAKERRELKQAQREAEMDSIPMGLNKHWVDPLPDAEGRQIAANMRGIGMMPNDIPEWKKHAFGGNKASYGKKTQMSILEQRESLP

Assay [3] addresses T3, DHX8 C-terminal fragment (residues 567-1220) with HB tag (human) (UniProt Q14562).
T3 sequence: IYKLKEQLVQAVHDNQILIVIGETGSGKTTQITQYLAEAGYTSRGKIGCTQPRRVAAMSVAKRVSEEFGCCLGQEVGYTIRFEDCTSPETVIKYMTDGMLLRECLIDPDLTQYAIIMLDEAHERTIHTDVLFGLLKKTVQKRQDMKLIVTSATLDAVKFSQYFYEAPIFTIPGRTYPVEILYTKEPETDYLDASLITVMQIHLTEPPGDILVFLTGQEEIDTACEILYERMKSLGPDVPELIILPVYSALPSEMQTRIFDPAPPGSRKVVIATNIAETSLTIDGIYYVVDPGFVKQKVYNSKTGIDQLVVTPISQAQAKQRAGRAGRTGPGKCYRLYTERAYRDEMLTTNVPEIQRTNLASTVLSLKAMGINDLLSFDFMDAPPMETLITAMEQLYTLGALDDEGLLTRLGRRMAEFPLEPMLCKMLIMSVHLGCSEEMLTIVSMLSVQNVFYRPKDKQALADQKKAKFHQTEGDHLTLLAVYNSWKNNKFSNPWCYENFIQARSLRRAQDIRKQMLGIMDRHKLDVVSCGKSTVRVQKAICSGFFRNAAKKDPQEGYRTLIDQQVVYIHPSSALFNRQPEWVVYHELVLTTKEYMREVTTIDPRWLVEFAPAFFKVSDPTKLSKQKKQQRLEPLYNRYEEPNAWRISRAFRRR

Assay [4] concerns the target T4, DHX8 WRO fragment (residues 917-1220) with HB tag (human) (UniProt Q14562).
T4 sequence: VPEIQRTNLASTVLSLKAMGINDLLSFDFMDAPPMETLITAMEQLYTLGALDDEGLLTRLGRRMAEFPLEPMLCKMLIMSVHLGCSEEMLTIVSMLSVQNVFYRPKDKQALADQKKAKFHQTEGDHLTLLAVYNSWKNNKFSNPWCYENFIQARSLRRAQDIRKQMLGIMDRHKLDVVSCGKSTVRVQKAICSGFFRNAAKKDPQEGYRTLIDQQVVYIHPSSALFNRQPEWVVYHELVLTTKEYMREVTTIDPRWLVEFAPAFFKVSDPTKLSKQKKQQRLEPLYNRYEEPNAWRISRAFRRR

Assay [5] has as its target T5, DHX8 RecA fragment (residues 567-916) with HB tag (human) (UniProt Q14562).
T5 sequence: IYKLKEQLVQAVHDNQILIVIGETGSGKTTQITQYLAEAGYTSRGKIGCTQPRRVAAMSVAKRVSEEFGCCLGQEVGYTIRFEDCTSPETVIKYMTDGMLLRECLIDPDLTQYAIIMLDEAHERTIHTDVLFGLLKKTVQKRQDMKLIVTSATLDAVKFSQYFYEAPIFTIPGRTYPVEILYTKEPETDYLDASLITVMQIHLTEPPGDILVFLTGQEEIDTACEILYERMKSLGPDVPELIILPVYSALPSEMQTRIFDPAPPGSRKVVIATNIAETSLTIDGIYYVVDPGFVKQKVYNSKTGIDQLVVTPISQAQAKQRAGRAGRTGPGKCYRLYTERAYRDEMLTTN

B1: SIDT2 (overexpressed in N2a cells, Fig. 4H) (protein, UniProt Q8CIF6 19-832)
chain: HLGALGPKNVSQKDAEFERTYADDVNSELVNIYTFNHTVTRNRTEGVRVSVNVLNKQKGAPLLFVVRQKEAVVSFQVPLILRGLYQRKYLYQKVERTLCQPPTKNESEIQFFYVDVSTLSPVNTTYQLRVNRVDNFVLRTGELFTFNTTAAQPQYFKYEFPDGVDSVIVKVTSKKAFPCSVISIQDVLCPVYDLDNNVAFIGMYQTMTKKAAITVQRKDFPSNSFYVVVVVKTEDQACGGSLPFYPFVEDEPVDQGHRQKTLSVLVSQAVTSEAYVGGMLFCLGIFLSFYLLTVLLACWENWRQRKKTLLLAIDRACPESGHARVLADSFPGSAPYEGYNYGSFENGSGSTDGLVESAGSGDLSYSYQDRSFDAVGPRPRLDSMSSVEEDDYDTLTDIDSDKNVIRTKQYLCVADLARKDKRVLRKKYQIYFWNIATIAVFYALPVVQLVITYQTVVNVTGNQDICYYNFLCAHPLGNLSAFNNILSNLGYILLGLLFLLIILQREINHNRALLRNDLYALECGIPKHFGLFYAMGTALMMEGLLSACYHVCPNYTNFQFDTSFMYMIAGLCMLKLYQKRHPDINASAYSAYACLAIVIFFSVLGVVFGKGNTAFWIVFSVIHIISTLLLSTQLYYMGRWKLDSGIFRRILHVLYTDCIRQCSGPLYTDRMVLLVMGNIINWSLAAYGLIMRPNDFASYLLAIGICNLLLYFAFYIIMKLRSGERIKLIPLLCIVCTSVVWGFALFFFFQGLSTWQKTPAESREHNRDCILLDFFDDHDIWHFLSSIAMFGSFLVLLTLDDDLDTVQRDKIYVF
On to B1, for which the binding entry in assay [1] is on record as “binds”.

B2: FLAG-tagged mouse SIDT2 (protein, UniProt Q8CIF6 19-832)
chain: HLGALGPKNVSQKDAEFERTYADDVNSELVNIYTFNHTVTRNRTEGVRVSVNVLNKQKGAPLLFVVRQKEAVVSFQVPLILRGLYQRKYLYQKVERTLCQPPTKNESEIQFFYVDVSTLSPVNTTYQLRVNRVDNFVLRTGELFTFNTTAAQPQYFKYEFPDGVDSVIVKVTSKKAFPCSVISIQDVLCPVYDLDNNVAFIGMYQTMTKKAAITVQRKDFPSNSFYVVVVVKTEDQACGGSLPFYPFVEDEPVDQGHRQKTLSVLVSQAVTSEAYVGGMLFCLGIFLSFYLLTVLLACWENWRQRKKTLLLAIDRACPESGHARVLADSFPGSAPYEGYNYGSFENGSGSTDGLVESAGSGDLSYSYQDRSFDAVGPRPRLDSMSSVEEDDYDTLTDIDSDKNVIRTKQYLCVADLARKDKRVLRKKYQIYFWNIATIAVFYALPVVQLVITYQTVVNVTGNQDICYYNFLCAHPLGNLSAFNNILSNLGYILLGLLFLLIILQREINHNRALLRNDLYALECGIPKHFGLFYAMGTALMMEGLLSACYHVCPNYTNFQFDTSFMYMIAGLCMLKLYQKRHPDINASAYSAYACLAIVIFFSVLGVVFGKGNTAFWIVFSVIHIISTLLLSTQLYYMGRWKLDSGIFRRILHVLYTDCIRQCSGPLYTDRMVLLVMGNIINWSLAAYGLIMRPNDFASYLLAIGICNLLLYFAFYIIMKLRSGERIKLIPLLCIVCTSVVWGFALFFFFQGLSTWQKTPAESREHNRDCILLDFFDDHDIWHFLSSIAMFGSFLVLLTLDDDLDTVQRDKIYVF
Consider B2, for which the binding entry is recorded as “no binding” in assay [2], “binds” in assay [3], “binds” in assay [4] and “binds” in assay [5].
